Measurements taken from EPA's CvTdb concentration-time database.
The source gives many values for each of these; only a part stands here.

Legend:
Rat [1] = assay: concentration in plasma after dosing; details: 1 h; dosed: 2-Methyltetrahydrofuran; 10 mg/kg; iv; Male; F344
Rat [2] = assay: concentration in plasma after dosing; details: 10 min; dosed: 2-Methyltetrahydrofuran; 30 mg/kg; oral; Male; F344
Rat [3] = assay: concentration in plasma after dosing; details: 12 h; dosed: 2-Methyltetrahydrofuran; 400 mg/kg; oral; Female; Harlan Sprague Dawley
Rat [4] = assay: concentration in plasma after dosing; details: 1 h; dosed: 2-Methyltetrahydrofuran; 10 mg/kg; oral; Male; F344
Rat [5] = assay: concentration in plasma after dosing; details: 0.5 h; dosed: 2-Methyltetrahydrofuran; 10 mg/kg; oral; Female; F344
Rat [6] = assay: concentration in plasma after dosing; details: 10 min; dosed: 2-Methyltetrahydrofuran; 100 mg/kg; oral; Female; Harlan Sprague Dawley
Rat [7] = assay: concentration in brain after dosing; details: 20 min; dosed: 2-Methyltetrahydrofuran; 30 mg/kg; oral; Female; F344
Rat [8] = assay: concentration in brain after dosing; details: 5 min; dosed: 2-Methyltetrahydrofuran; 100 mg/kg; oral; Female; Harlan Sprague Dawley
Rat [9] = assay: concentration in brain after dosing; details: 10 min; dosed: 2-Methyltetrahydrofuran; 10 mg/kg; oral; Male; F344
Rat [10] = assay: concentration in plasma after dosing; details: 1.5 h; dosed: 2-Methyltetrahydrofuran; 10 mg/kg; oral; Male; F344
Rat [11] = assay: concentration in brain after dosing; details: 20 min; dosed: 2-Methyltetrahydrofuran; 400 mg/kg; oral; Male; F344
Rat [12] = assay: concentration in brain after dosing; details: 20 min; dosed: 2-Methyltetrahydrofuran; 100 mg/kg; oral; Female; Harlan Sprague Dawley
Rat [13] = assay: concentration in plasma after dosing; details: 0.75 h; dosed: 2-Methyltetrahydrofuran; 30 mg/kg; oral; Female; F344
Rat [14] = assay: concentration in plasma after dosing; details: 1 h; dosed: 2-Methyltetrahydrofuran; 30 mg/kg; oral; Female; F344
Rat [15] = assay: concentration in brain after dosing; details: 2 h; dosed: 2-Methyltetrahydrofuran; 10 mg/kg; oral; Male; F344
Rat [16] = assay: concentration in plasma after dosing; details: 2 min; dosed: Bromochloroacetic acid; 10 mg/kg; iv; Male; F344
Rat [17] = assay: concentration in plasma after dosing; details: 2 min; dosed: Bromochloroacetic acid; 10 mg/kg; iv; Male; F344; remark: listed apart in the source
Rat [18] = assay: concentration in plasma after dosing; details: dosed: Fluorotelomer alcohol 8+2, 160 mg/kg, oral, Female, Harlan Sprague Dawley
Rat [19] = assay: concentration in plasma after dosing; details: dosed: Fluorotelomer alcohol 8+2, 40 mg/kg, oral, Female, Harlan Sprague Dawley
Rat [20] = assay: concentration in plasma after dosing; details: dosed: Fluorotelomer alcohol 8+2, 80 mg/kg, oral, Female, Harlan Sprague Dawley
Rat [21] = assay: concentration in plasma after dosing; details: 3 h; dosed: Fluorotelomer alcohol 8+2; 80 mg/kg; oral; Female; Harlan Sprague Dawley
Rat [22] = assay: concentration in plasma after dosing; details: dosed: Formamide, 36 mg/kg, oral, Female, Harlan Sprague Dawley
Rat [23] = assay: concentration in plasma after dosing; details: dosed: Formamide, 30 mg/kg, iv, Female, F344
Rat [24] = assay: concentration in plasma after dosing; details: dosed: Formamide, 300 mg/kg, oral, Female, F344
Rat [25] = assay: concentration in plasma after dosing; details: dosed: Formamide, 600 mg/kg, oral, Male, Harlan Sprague Dawley
Rat [26] = assay: concentration in plasma after dosing; details: dosed: Formamide, 300 mg/kg, oral, Female, Harlan Sprague Dawley
Rat [27] = assay: concentration in plasma after dosing; details: dosed: Formamide, 36 mg/kg, oral, Female, Harlan Sprague Dawley; remark: listed apart in the source
Rat [28] = assay: concentration in plasma after dosing; details: dosed: Formamide, 90 mg/kg, iv, Male, Harlan Sprague Dawley
Rat [29] = assay: concentration in plasma after dosing; details: dosed: Formamide, 300 mg/kg, oral, Female, Harlan Sprague Dawley; remark: listed apart in the source
Rat [30] = assay: concentration in plasma after dosing; details: dosed: Formamide, 90 mg/kg, iv, Male, Harlan Sprague Dawley; remark: listed apart in the source
Rat [31] = assay: concentration in plasma after dosing; details: dosed: Pyridine, 25 mg/kg, oral, Female, F344
Rat [32] = assay: concentration in plasma after dosing; details: dosed: Pyridine, 5 mg/kg, oral, Female, F344
Rat [33] = assay: concentration in plasma after dosing; details: 5 min; dosed: Pyridine; 10 mg/kg; iv; Male; Harlan Sprague Dawley
Rat [34] = assay: concentration in plasma after dosing; details: dosed: Pyridine, 25 mg/kg, oral, Female, F344; remark: listed apart in the source
Rat [35] = assay: concentration in plasma after dosing; details: 0.25 h; dosed: Pyridine; 10 mg/kg; iv; Male; Harlan Sprague Dawley
Rat [36] = assay: concentration in plasma after dosing; details: 5 min; dosed: Pyridine; 0.5 mg/kg; iv; Male; F344

CC1CCCO1 (stereo unspecified) [2-Methyltetrahydrofuran]
Details	concentration in brain [µg/g]	concentration in plasma [ng/mL]
Rat [1]	–	2980
Rat [2]	–	12600
Rat [3]	–	1920
Rat [4]	–	1520
Rat [5]	–	2380
Rat [6]	–	45200
Rat [7]	6.97	–
Rat [8]	41.7	–
Rat [9]	3.09	–
Rat [10]	–	517
Rat [11]	190	–
Rat [12]	50.5	–
Rat [13]	–	5530
Rat [14]	–	16000
Rat [15]	0.0804	–

O=C(O)C(Cl)Br (stereo unspecified) [Bromochloroacetic acid]
Details	concentration in plasma [ng/mL]
Rat [16]	25500
Rat [17]	29000

OCCC(F)(F)C(F)(F)C(F)(F)C(F)(F)C(F)(F)C(F)(F)C(F)(F)C(F)(F)F [Fluorotelomer alcohol 8+2]
Details	concentration in plasma [ng/mL]
Rat [18], 1 h	1540
Rat [18], 24 h	98.7
Rat [19], 0.75 h	688
Rat [19], 12 h	81.6
Rat [20], 0.75 h	963
Rat [20], 48 h	2.32

Details	concentration in plasma [ng/mL]
Rat [21]	916

NC=O [Formamide]
Details	concentration in plasma [ng/mL]
Rat [22], 1 h	48700
Rat [22], 72 h	1600
Rat [23], 0.25 h	33200
Rat [23], 24 h	5500
Rat [24], 10 min	58600
Rat [24], 20 h	164000
Rat [25], 1 h	707000
Rat [25], 72 h	26000
Rat [26], 1.5 h	245000
Rat [26], 30 h	124000
Rat [27], 8 h	33900
Rat [27], 12 h	25400
Rat [28], 0.5 h	136000
Rat [28], 48 h	3800
Rat [29], 1 h	210000
Rat [29], 72 h	19700
Rat [30], 5 min	131000
Rat [30], 36 h	22500

c1ccncc1 [Pyridine]
concentration in plasma [ng/mL]
Details	0.5 h	1 h	6 h	8 h
Rat [31]	–	19100	–	15700
Rat [32]	–	3310	–	917
Rat [34]	14700	–	16300	–

Details	concentration in plasma [ng/mL]
Rat [33]	7500
Rat [35]	3370
Rat [36]	440
